PubChem BioAssay AID624417 (National Center for Advancing Translational Sciences (NCATS), 2012)
In all, about 410,000 compounds went through this assay and about 6,400 (1.6%) were called active. The inconclusive results got no clear call from the source; some entries with a clear call stand among them for comparison. Calls come from the whole dose curve; as a rule, active = well fitted inhibition curve with a large enough effect; inconclusive = small, poorly fitted or top-dose-only effect; inactive = no such curve, though single readings can be large or run the other way. No potency is given beside an inconclusive call; the fits are too rough.

target: Glucagon-like peptide 1 receptor (Homo sapiens) (UniProt P43220); assay: qHTS of GLP-1 Receptor Inverse Agonists (Inhibition Mode); conditions: HEK293 GLP-1R CRE-luciferase, luminescence, 24 h, GLP-1R form is constitutively active; activity change, negative = inhibition: at 38.3 µM (top of the series) unless noted; note: nearly all actives have a fitted effect of over 55% in size
In short: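 Luminescence readout: a drop in cAMP-driven luciferase signal flags inverse agonism at a constitutively active GLP-1R stably expressed in HEK293. Compound exposure lasted 24 hr at 37 deg C, 5% CO2.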
% is set by controls: 0 for no effect and ±100 for the full control effect; potency is the fitted concentration of half-maximal effect; tags give direction and shape of the fitted curve.

Sequence of UniProt P43220 (P43220 whole entry, looked up): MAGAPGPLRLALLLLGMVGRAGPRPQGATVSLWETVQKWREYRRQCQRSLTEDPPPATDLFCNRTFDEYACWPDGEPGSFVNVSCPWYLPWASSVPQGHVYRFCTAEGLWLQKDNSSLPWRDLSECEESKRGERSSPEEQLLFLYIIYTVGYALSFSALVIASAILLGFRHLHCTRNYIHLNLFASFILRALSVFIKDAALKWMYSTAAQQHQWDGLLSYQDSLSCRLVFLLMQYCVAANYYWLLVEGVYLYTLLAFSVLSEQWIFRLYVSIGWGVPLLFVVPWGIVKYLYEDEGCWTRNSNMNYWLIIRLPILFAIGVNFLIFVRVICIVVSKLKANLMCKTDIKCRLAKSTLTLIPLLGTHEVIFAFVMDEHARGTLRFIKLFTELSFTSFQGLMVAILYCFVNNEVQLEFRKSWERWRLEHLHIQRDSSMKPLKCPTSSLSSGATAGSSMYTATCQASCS

Compound	Potency	activity change, negative = inhibition
COc1ccc(CNC(=O)CN2CCN(c3cccc(C)c3C)CC2)cc1	inconclusive [inhibitor, partial curve]	–
COc1ccc(CNC(=O)Cc2c(C)c3ccc(O)cc3oc2=O)cc1	–	inactive: 4.81%
CCN(CC)C(=S)SCC(=O)c1c(C)[nH]c2ccccc12	inconclusive [inhibitor, single point]	–
CC(=O)Oc1ccc(/C=C2/CCc3ccccc3C2=O)cc1	inconclusive [inhibitor, single point]	–
O=C(NCc1ccc2c(c1)OCO2)C1CC(c2ccc(Cl)c(Cl)c2)=NO1 (stereo not drawn)	inconclusive [inhibitor, single point]	–
COc1ccc(-n2c(-c3ccc(Cl)cc3)cc3c2CC(C)(C)CC3=O)c(OC)c1	inconclusive [inhibitor, partial curve, poor fit]	–
CC(=O)c1cccc(-c2ccc3c(c2)C(C)(Cc2ccccc2F)C(=O)N3)c1 (stereo not drawn)	inconclusive [inhibitor, single point]	–
Cc1cccc(OCCn2nnc3sc4c(c3c2=O)CCCC4)c1	–	inactive: -29.1%
O=C(NC12CC3CC(CC(C3)C1)C2)c1cc2nc(-c3ccco3)cc(C(F)(F)F)n2n1	inconclusive [inhibitor, full curve, poor fit]	–
COc1ccc(Cl)cc1N(C(C)C(=O)NC1CCCC1)S(C)(=O)=O (stereo not drawn)	inconclusive [inhibitor, single point]	–
O=C1C2C3C=CC(C2C(=O)N1CCO)C1C(=O)N(CCO)C(=O)C31 (stereo not drawn)	–	inactive: -0.124%
CC(C)c1ccc(NS(=O)(=O)c2ccc3[nH]cc(C(=O)NC4CCCCC4)c(=O)c3c2)cc1	inconclusive [inhibitor, single point]	–
C[C@@]12C(=O)N(CCO)CC(=O)N1[C@H](/C=C/c1ccccc1)[C@@H]1C(=O)N(c3ccccc3)C(=O)[C@@H]12	–	inactive: 4.01%
CCOc1ccc(C(=O)NCC(=O)NCCSc2ccc(Br)cc2)cc1OCC	inconclusive [inhibitor, single point]	–
O=C(C1CCCCC1)N(Cc1ccccc1)c1ccccn1	inconclusive [inhibitor, single point]	–
CNCc1ccccc1Sc1cccc(O)c1	inconclusive [inhibitor, partial curve, poor fit]	–
CC1(C)CC(NC(=O)c2cccc(S(=O)(=O)N(Cc3ccccc3)c3ccccc3)c2)CC(C)(C)N1	inconclusive [inhibitor, full curve, poor fit]	–
CCCCNS(=O)(=O)c1ccc2nc(SCC(=O)Nc3cc(C)cc(C)c3)[nH]c2c1	inconclusive [inhibitor, partial curve, poor fit]	–
COc1ccc(-c2nc3ccccn3c2NC2CCCCC2)cc1SC1CCCCC1	inconclusive [inhibitor, partial curve, poor fit]	–
FC(F)Sc1ccc(NC(=S)NCC2CCCCC2)cc1	inconclusive [inhibitor, single point]	–
Cc1cccc(-n2cc(-c3ccccc3)nc2SCC(=O)Nc2ccccc2Cl)c1	inconclusive [inhibitor, single point]	–

Compound	Potency	activity change, negative = inhibition
CC(C)n1cc(/C=N/Nc2ccc(C(=O)O)cc2)c2ccccc21	–	inactive: -48.4%
COc1ccc(Nc2nc(N3CCCCC3)nc3ccccc23)c(OC)c1	inconclusive [inhibitor, partial curve, poor fit]	–
CC1CC2=C(NC(=S)NC2c2cccc(F)c2)/C(=C/c2cccc(F)c2)C1 (stereo not drawn)	inconclusive [inhibitor, single point]	–
O=C(CCl)N1CCN2C(=O)c3ccccc3C12c1ccc(Cl)cc1 (stereo not drawn)	inconclusive [inhibitor, single point]	–
Cc1ccc(NC(=S)NC(=O)Cc2ccccc2)c(O)c1	inconclusive [inhibitor, single point]	–
Cc1ccc(C(C)C)c(OCC(=O)N/N=C/c2ccc(S(=O)(=O)O)o2)c1	inconclusive [inhibitor, single point]	–
C=CCn1c(=N)n(CC(=O)c2ccc(Br)s2)c2ccccc21	inconclusive [inhibitor, partial curve, poor fit]	–
CCC(=O)OC1CC(C)N(C(=O)c2ccccc2)c2ccc(C)cc21 (stereo not drawn)	inconclusive [inhibitor, single point]	–
O=C(N/N=C/c1cc(Cl)cc([N+](=O)[O-])c1O)c1cccc(S(=O)(=O)N2CCOCC2)c1	inconclusive [inhibitor, single point]	–
CC1Sc2ccc(S(=O)(=O)CCC(=O)NCc3ccc(Cl)cc3)cc2NC1=O (stereo not drawn)	inconclusive [inhibitor, single point]	–
COC(=O)c1ccc(OC)c(CN2CCCN(Cc3cc(C)ccc3C)S2(=O)=O)c1	inconclusive [inhibitor, partial curve, poor fit]	–
CC/C(=N\NC(=O)c1cc(C)oc1C)c1ccc(OC(F)F)cc1	inconclusive [inhibitor, single point]	–
Cc1nnsc1-c1onc(C)c1C(=O)Nc1cc(Cl)cc(Cl)c1	inconclusive [inhibitor, partial curve, poor fit]	–
CCOc1ccc(CN2CCN(CCCc3ccccc3)CC2CCO)cc1 (stereo not drawn)	inconclusive [inhibitor, partial curve, poor fit]	–
CC(=O)Nc1ccc(NC(=O)COc2ccc(S(=O)(=O)N3CCCC3)cc2)cc1	–	inactive: 36.6%
c1ccc(-c2nc(NC3CCCC3)c3ccccc3n2)cc1	inconclusive [inhibitor, partial curve, poor fit]	–
CCCCNC(=O)c1sc2nc(C)cc(COC)c2c1-n1cccc1	active: 8.91 µM	–
C/C(=N\OCc1ccc(C#N)cc1)c1cc2ccccc2o1	inconclusive [inhibitor, single point]	–
CC(C)CCOP(=O)(c1ccccc1)c1ccccc1	inconclusive [inhibitor, partial curve, poor fit]	–
CNC(=O)c1sc(N2N=C3/C(=C\c4ccccc4)CCCC3C2c2ccccc2)nc1C (stereo not drawn)	inconclusive [inhibitor, partial curve, poor fit]	–
C1=CC2=NC34CCCCC3CC3=C(CCCC3)N4C2=CC1=NC1CCCCC1 (stereo not drawn)	active: 10 µM	–

Compound	Potency	activity change, negative = inhibition
Cc1oc2ncn(C)c(=O)c2c1C(=O)N(C)c1ccccc1F	inconclusive [inhibitor, single point]	–
O=C(/C=C/c1cccc(F)c1)Nc1cc(S(=O)(=O)N2CCOCC2)ccc1Cl	inconclusive [inhibitor, single point]	–
COC(=O)c1ccc(NS(=O)(=O)c2ccc3[nH]c4c(c3c2)CCCCC4)cc1	inconclusive [inhibitor, single point]	–
CCCCCCNCc1ccc(Br)cc1	–	inactive: -18.8%
CSc1ncc(C(=O)Nc2ccccc2F)c(-c2ccccc2)n1	inconclusive [inhibitor, partial curve, poor fit]	–
Fc1ccccc1-c1nc(NC2CCCC2)c2ccccc2n1	inconclusive [inhibitor, partial curve, poor fit]	–
COc1cccc(/C=C2/C(=O)NN(c3ccc(Br)cc3)C2=O)c1O	inconclusive [inhibitor, full curve, poor fit]	–
CCOC(=O)c1cnc(Nc2nc3ccccc3o2)nc1CSc1nnc(C)s1	–	inactive: 0%
O=C(NCCC(=O)N1CCCCCCC1)c1ccc(Br)cc1	inconclusive [inhibitor, single point]	–
CCc1ccc(-c2csc(NC(=O)C3CC(=O)N(c4ccc5c(c4)OCCO5)C3)n2)cc1 (stereo not drawn)	inconclusive [inhibitor, partial curve, poor fit]	–
CCn1c(CNC(=O)c2ccccc2F)nnc1SCCOc1ccccc1	inconclusive [inhibitor, single point]	–
Fc1cccc(CN2CCC(Cc3ccccc3)CC2)c1	inconclusive [inhibitor, partial curve, poor fit]	–
Cc1[nH]c2ccccc2c1/C=N/NC(=O)c1cc(C(C)C)[nH]n1	inconclusive [inhibitor, partial curve]	–
Cc1cccc(-n2cc(CNCCN3CCOC3=O)c(-c3cccc(F)c3)n2)c1	inconclusive [inhibitor, single point]	–
O=C(Nc1cccc(Cl)c1)Nc1sccc1-c1nc2ccccc2s1	inconclusive [inhibitor, full curve]	–
O=C1C2=C(Nc3ccccc3SC2c2c(F)cccc2Cl)c2ccccc21 (stereo not drawn)	inconclusive [inhibitor, partial curve, poor fit]	–
CCC(=O)N1CCC1(C)C(=O)Nc1ccc(C)c(C)c1 (stereo not drawn)	–	inactive: 3.64%
COc1ccc(C2c3[nH]c4ccccc4c3C[C@H]3C(=O)N(C4CCN(Cc5ccccc5)CC4)CC(=O)N23)cc1OC (stereo partly drawn)	active: 12.6 µM	–
C/C(CC(=O)Nc1cccc2c1CCCC2)=N\NC(=O)c1ccccc1N	–	inactive: 0%
CCc1nc2ccc(C(=O)NCCc3ccccn3)cn2c1N(CC)Cc1cccc(Br)c1	inconclusive [inhibitor, single point]	–
CCC1Oc2ccc(C)cc2N(CC(=O)N(Cc2ccc3c(c2)OCO3)CC2CCCO2)C1=O (stereo not drawn)	inconclusive [inhibitor, single point]	–
